# Laboratory results from US11339184B2, “Antibacterial compounds, compositions thereof, and methods using same” (priority 2019, dated 2022).
# Experiments:
# [1] = test system: S. aureus ATCC 12600 carrying H481Y mutation; format: cell-based
# [2] = test system: S. aureus ATCC 12600 carrying S486L mutation; format: cell-based
smiles,measurement,setting,value
"CO[C@H]1/C=C/O[C@@]2(C)Oc3c(C)c(O)c4c(O)c(c(/C=N/N5CCN(C)CC5)c(O)c4c3C2=O)NC(=O)/C(C)=C\C=C\[C@H](C)[C@H](O)[C@@H](C)[C@@H](O)[C@@H](C)[C@H](OC(C)=O)[C@@H]1C [Rif, rifampicin]",activity against the H481Y S. aureus strain,[1],inactive
same,activity against the S486L S. aureus strain,[2],inactive
